Laboratory results reported in US20180169257A1 (Seagen, published 2018).

Target: T1, human NTB-A (human, UniProt Q96DU3 22-332)
T1 sequence: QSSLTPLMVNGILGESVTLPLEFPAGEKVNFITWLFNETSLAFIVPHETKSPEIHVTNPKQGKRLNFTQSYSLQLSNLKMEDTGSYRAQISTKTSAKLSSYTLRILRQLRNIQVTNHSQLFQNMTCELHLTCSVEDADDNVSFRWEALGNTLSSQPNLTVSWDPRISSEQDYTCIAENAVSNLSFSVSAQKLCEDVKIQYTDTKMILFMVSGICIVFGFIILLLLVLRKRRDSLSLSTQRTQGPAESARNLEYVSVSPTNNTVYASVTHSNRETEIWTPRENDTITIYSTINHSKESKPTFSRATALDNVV
Experiment: cell-based or functional assay

B1: h20F3ec-1910(2) PBD dimer ADC (other)
heavy: QIQLVQSGSELKKPGASVKVSCKASGYTFTNYGMNWVRQAPGQDLKWMGWINTYSGEPRYADDFKGRFVFSLDKSVNTAYLQISSLKAEDTAVYYCARDYGRWYFDVWGQGTTVTVSS[sequence of human IgG1 constant region with changes omitted]
light: QIVLSQSPATLSLSPGERATMSCRASSSVSHMHWYQQKPGQAPRPWIYATSNLASGVPARFSGSGSGTDYTLTISSLEPEDFAVYYCQQWSSTPRTFGGGTKVEIKRTVAAPSVFIFPPSDEQLKSGTASVVCLLNNFYPREAKVQWKVDNALQSGNSQESVTEQDSKDSTYSLSSTLTLSKADYEKHKVYACEVTHQGLSSPVTKSFNRGEC
modifications: drug-linker SGD-1910 (PBD dimer) on the thiol of the cysteine introduced at position 239 (EU index) of the IgG1 chain; average drug load about 2 per antibody
In the case of B1, the “Maximum % Phagocytosis (ADCP), Raji cell line” value is reported as 45%, the “Maximum % Phagocytosis (ADCP), WIL2-S cell line” value is reported as 45% and the “Maximum % Phagocytosis (ADCP), normal human T cells” value is reported as 37%.
